Laboratory results taken from the supplement of paper PMC11417369.
The other results are listed elsewhere or left out.

system: PfAP2-HC AP2 domain (GST-tagged); experiment: gcPBM binding intensity (ln(normalized median fluorescence intensity)); higher = stronger DNA binding
How it was run: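 For binding intensity, the highest Masliner-normalised natural-log median intensity across replicate spots of either probe orientation was taken. Protein bound to the array was stained with Alexa488 anti-GST antibody and scanned at 488 nm. The protein, GST-tagged P. falciparum DNA-binding domains from E. coli at about 25 μg on average, had been applied for 1 h to an Agilent 4 × 180k array of primer-extended double-stranded 36-bp intergenic genomic probes and negative controls.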

Sequence	gcPBM binding intensity (ln)
AATTAAATTACTTATACACACATAAAATGTCTGTAT [CACACA_site997]	9.97
AAATTATGAACATATTGTACATATATATATATATAT [XGTACX_site8269]	9.73
CATGTATGTACCATGGTGCAACAATATTTTTAACAA [GTGCAC_site9597]	9.45
AAGATAACAAGTAATCAATCTAATTATTAATTATAT [CACACA_negctrl_site1713]	9.52
AAAAGAAAAATGTCATATGATATCATATATTTTATA [GTGCAC_negctrl_site185]	9.55
AAAAATATGTGATAATGTACTTTTCATTTTTATTTT [XGTACX_site8544]	9.63
ATAATTATATATATATGTACATATTATATATATATA [XGTACX_site4526]	9.66
CATAAATACATACATACACACATATTTATATTTATA [CACACA_site7071]	10.1
ATATACATATATATATGTACTGAAAAGAAAAGAATT [XGTACX_site150]	9.82
TGTTTTTAAATTTAAATCAAAAAATAAAATAAAATA [GTGCAC_negctrl_site355]	9.15
TTTTTATTTTATAATATATTCCTTTTCCTTTCTTTC [CACACA_negctrl_site245]	9.5
TACATATATATAAATACACACACACCCACCTTATAA [CACACA_site9346]	10.6
TTATTAGAAAAATGCACACCAAAAAAAAAAAAAAAA [CACACA_site2522]	9.53
ATACATATACACATATGTACATATGAAAAGAAAAAT [XGTACX_site6445]	10.1
TATATATATTGTGTATGTACATATATATAAATATTG [XGTACX_site433]	9.65
TTCATTTGAAAACTGTGTACTTAAAAATATACATAT [XGTACX_site176]	9.59
AATATAATATAATGCACACATAAACAAAAAAAAAAT [CACACA_site1304]	10.2
ATATATTTAAATAAATGTACAAATCATAAATTCAAG [XGTACX_site1417]	9.69
TATATATTTTATTATTGTACGAATTATTTATTTTAC [XGTACX_site8105]	9.7
TACATCATCTATAAGGTGCATTTTAGTTCTATTAAA	9.52
TTTTTTCTAATATCTTTGCCTTTTTCTTTATTTATT [CACACA_negctrl_site1053]	9.87
ATATATATATATATATGTACATATGTATGTGTTTGT [XGTACX_site397]	9.93
TATACTCATTTTTATACACACTTGTTTTATAAAACG [CACACA_site4561]	9.78

Sequence	gcPBM binding intensity (ln)
AAATTTATTATGAACATACACACAAAAAAAAAAAGT [CACACA_site2053]	10
CTATATGTATAAAGTTGTACAGTTTTTCAAAGTTAA [XGTACX_site6652]	9.53
TTTTTTTTTTTTTTGTGTACATATAATGCACATTAT [XGTACX_site6505]	9.6
TACTTTTATATAGAAAGTACATACAATTCATAGAAT [XGTACX_site2182]	9.45
TATTGAAACCCACACGAACACACGTATTTCATAAAC [CACACA_site251]	9.91
TATAAAAAGCATAACACACACATGTCAATATAAATA [CACACA_site6648]	10.1
ATGGACATTTTATAAATCACAATGGATATTTTATAA [CACACA_negctrl_site1830]	9.39
AAACCGTGGGAGCACACACACACACCCACCCATATA [CACACA_site332]	10.4
ACAAAACAAAACAAAAGTACACAAAATAAATAAGAT [XGTACX_site6497]	10
ATAATAACAAAATATTAACACACATAACATATTATA [CACACA_site8906]	9.9
AATCCTTAAAATTAACGTACGAAATGAATTTATTAA [XGTACX_site956]	9.53
TGGAGGTCATTACACAGTACCCAGGAAATCTACGGA [XGTACX_site2004]	9.37
ATAAATAAATACTAGGCACACACACCGATATATATA [CACACA_site8649]	10.4
TATTAATCCTTTTGCTTGGAAACATTCAAAAGGAAG [CACACA_negctrl_site1129]	9.27
AAAATAAACCCAGACACACTCATTAAAAAATATCAT [CACACA_site5903]	9.93
ATATATATAAAATATGGTACAGAAAAAGTCTTGTTT [XGTACX_site8868]	9.83
TTCTGTCAATATGCTTGTACGAAATATTTCGTAATT [XGTACX_site3182]	9.93
ATTGTATTAAAATGCACACATATCAAGAGGAATTTT [CACACA_site283]	9.86
ATGTATATATTCAATTGTACATGTTATATTTACACA [XGTACX_site1125]	9.78
AAAGAATAATTAAATACACACATATTGCAGTAAAAA [CACACA_site7201]	10.1
TGTAAAATATAAAAAGTGCATTTCTTTTAATATGAT	9.49
ATATTAAAATTTTAATGTACATGCGTATGTAGGAAT [XGTACX_site1673]	10.1
AACATATATTTTTAATGTACAAGGTTGTAAAGAACT [XGTACX_site1405]	9.88

Sequence	gcPBM binding intensity (ln)
TATATTATATTTTTATGTACTTATTTATTTTGTTTC [XGTACX_site6145]	9.83
AAAGATATAAATTACTGTACTAATGAAATTGGTAAA [XGTACX_site3582]	9.68
CAATTGATATTGAAATGTACTTTTTAGATGAACCTT [XGTACX_site2354]	9.42
TTAAATAATGCCACCAGTACCCACTGAAAGAAAAAA [XGTACX_site5013]	9.74
TATATTAAAATTTACTGTACTTTTTTTATTTTAAAA [XGTACX_site4077]	9.52
AAAAAAAATACAAAAAGTACAAAAAATACAAAAAAA [XGTACX_site8844]	9.71
TTCTTTTTTTAAAGAAGTACTATATTTTAAATTATA [XGTACX_site5059]	9.41
TTTAAAATAAATTAATAGAACAAAAATAAAATGATT [GTGCAC_negctrl_site375]	9.63
ATGTATATATATATATGTACATATTTTTTATATGTA [XGTACX_site441]	9.69
AATTTTATTACTTTTACACACCTATATATCATTCAT [CACACA_site7525]	9.96
ACCTTAAATAATACATGTACAAAAAAATTTATAATA [XGTACX_site1043]	9.54
AAGAATAAGGAAAAATGTACAGAATGCACATATGAA [XGTACX_site4705]	9.73
TAGGGATTATACCACACACACATACACATAAATATA [CACACA_site3178]	10.3
TTTCAAATGATTAAGTGTACATGTTTGCTTGCTCTT [XGTACX_site4697]	9.47
TTTTTTTTTGTTATGTTGCACTTTGCCATATTATTA [GTGCAC_site9844]	9.87
AATAATAAAAAAAGTGCACACACATAATATATATAT [CACACA_site9100]	10.1
AACAATATATTGATATTATTTTAAGTGATTATATAT [XGTACX_negctrl_site205]	9.65
TATAAAAAAATAAAAGGAATATACTTGCAAAGGGTA [CACACA_negctrl_site1438]	9.83
ATGTAAGTAATTATCTGTACACATAATATATATATA [XGTACX_site2618]	9.82
AATATAAAAAATAATACACACACATGGCGACAAAAT [CACACA_site8765]	10.3
TACATATTACTATTCAGTACATATTTTTTTTTCATT [XGTACX_site7468]	9.81
TATATAGGTATATATACACACAACGGTTATAAATAT [CACACA_site4759]	9.94
TATAAAGACACGAAAACACACATATGTAAATATATA [CACACA_site8056]	10

Sequence	gcPBM binding intensity (ln)
AGGATAAAAGTTATGGTGCATTAACCTATTTAAATA	9.51
TAGTTTTGAAAACAAACACACAAAAAAAAAAAAAAA [CACACA_site1692]	9.34
CACATAAATAATTAAACACACATTGTTCTAGACAAT [CACACA_site2378]	9.82
TTTGAGTTACTATTCACACAAAATGGATAAATTAAT [CACACA_site5626]	9.56
TCCTCATTTTATCATACACACTTGTTTATATGTGTG [CACACA_site6548]	9.88
TATATATATATAATTTGTACACACAAATATGCATAT [XGTACX_site7297]	9.85
ATATATAATAATTGTAGTACAATTAATAAATAAAAT [XGTACX_site3840]	9.89
AATATTTATAAATTTACACACACACCCGTGAACATA [CACACA_site1910]	10.2
TTATCATTTTAAATCACACACATATATAAATATGTA [CACACA_site7359]	9.73
ATACGATTGCAGTCAAAAAGGAAAATATAAAAAAAG [XGTACX_negctrl_site124]	9.5
TGGGGTATTAAAAAAACACACAAAAAAAATATAAAG [CACACA_site1915]	9.57
AAAATGTATATTGGCGCATGTAAACAAATACTATAC [TGCATGCA_site385]	9.96
GATAATAATAAGTGTACACATATATTTAGAAGAGTA [CACACA_site4245]	9.96
ATATATATGTATGTATATATATATATATATGTTTGA [CACACA_negctrl_site107]	9.86
TTAATAACGTAATGTAAATGTTTCATACCCTTTTTT [CACACA_negctrl_site988]	9.58
TTTTTTTTTCTGTATACACACAAAATTTATTTTTTA [CACACA_site2873]	9.83
ATAAAATAAAAACATGCACACTTTATTTTTTTTAAG [CACACA_site5545]	9.59
AAAGAAGGGGGGGGAAAAAAAAATAAAAGAGGAAAA [XGTACX_negctrl_site92]	9.37
AAATTTAGTAAAAAATGTACGTAAAATGTAAAATAT [XGTACX_site1314]	9.86
ATACTAACATTTTTTTGTACATATAACTATAAAATA [XGTACX_site1033]	9.36
